Assay results published in publication PMC6919601, “Identification of Plasmodium dipeptidyl aminopeptidase allosteric inhibitors by high throughput screening” (PLoS ONE, 2019).
Screen size: about 110,000 compounds; about 230 (0.21%) showed an effect of 50% or more. The list shows a part of the results.

Each compound was assayed against DPAP1 (Plasmodium falciparum, UniProt Q8IIJ9) (assay: primary screen, percent inhibition; read by cleavage of a fluorogenic dipeptide substrate; higher = more effect of the substance).
DPAP1, sequence (Q8IIJ9 whole entry, looked up): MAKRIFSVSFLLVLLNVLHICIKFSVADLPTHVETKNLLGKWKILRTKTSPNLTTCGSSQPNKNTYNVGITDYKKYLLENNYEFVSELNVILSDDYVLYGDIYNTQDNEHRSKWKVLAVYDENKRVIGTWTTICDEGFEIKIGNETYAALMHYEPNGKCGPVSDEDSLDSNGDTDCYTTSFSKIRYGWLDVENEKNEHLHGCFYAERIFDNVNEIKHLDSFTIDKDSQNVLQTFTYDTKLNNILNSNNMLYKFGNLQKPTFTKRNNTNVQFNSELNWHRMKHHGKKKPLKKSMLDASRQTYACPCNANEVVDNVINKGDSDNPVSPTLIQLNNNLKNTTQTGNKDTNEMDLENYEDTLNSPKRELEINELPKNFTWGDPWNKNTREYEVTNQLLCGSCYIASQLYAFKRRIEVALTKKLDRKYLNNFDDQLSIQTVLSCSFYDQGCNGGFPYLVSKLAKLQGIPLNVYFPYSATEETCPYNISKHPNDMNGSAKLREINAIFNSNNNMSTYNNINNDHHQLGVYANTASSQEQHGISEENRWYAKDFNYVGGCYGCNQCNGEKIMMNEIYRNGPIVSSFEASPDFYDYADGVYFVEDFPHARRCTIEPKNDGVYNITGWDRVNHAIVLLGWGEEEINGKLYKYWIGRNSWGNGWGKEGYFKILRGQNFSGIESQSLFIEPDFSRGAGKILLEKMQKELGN
Design: species or system P. falciparum D10 trophozoite lysates; single well
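Also: 30 min substrate incubation versus DMSO and 10 µM JCP410 controls.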

Compound | % Inhibition @ 10 uM [%]
Cc1ccc(CN2C(=O)N/C(=C/c3cccc(C(F)(F)F)c3)C2=O)cc1 | 0.755
Cc1ccc(N2C(=O)c3ccc(C(=O)c4ccc5c(c4)C(=O)N(c4ccc(C)cc4O)C5=O)cc3C2=O)c(O)c1 | 1.9
CCN1CCN(Cc2cccc3ccccc23)CC1 | -0.127
Cc1c(CNC2CCCCC2C)c(C(=O)O)c(C)n1Cc1ccccc1F (stereo not shown) | -0.23
CCc1ccc(OCC(=O)N2CCc3ccccc32)cc1 | -3.49
O=C(CNC(=O)c1ccccc1)NC1(C(=O)NC2CCCCC2)CCCCC1 | 0.457
CCCCNC1=Nc2ccccc2CCC1 | 1.24
CC(CNc1cnn(C23CC4CC(CC(C4)C2)C3)c(=O)c1Cl)c1ccccc1 (stereo not shown) | 1.72
COC(=O)C1=CN(Cc2ccc(F)cc2)C=C(C(=O)OC)C1c1cc(Br)ccc1OC | 4.99
COC(=O)c1ccc(/C=c2\sc3nc4ccccc4n3c2=O)cc1 | -0.414
c1ccc(CN2CCN(C3CCCCCCC3)CC2)cc1 | 0.472
C1=C(c2c[nH]c3ccccc23)CCN(Cc2ccccc2)C1 | -0.0309
CCc1cc2c(NCCc3ccccc3)ncnc2s1 | 2.64
COc1cccc2c1Oc1ncccc1N(c1ccc(C(=O)NCc3ccco3)s1)C2 | -3.2
OCCN(CCO)c1nc(N2CCCCC2)ncc1F | 2.86
Cc1ccc(NC2=NC(=O)C(CC(=O)Nc3ccccc3C(F)(F)F)S2)cc1 (stereo not shown) | 5.97
O=C(/C=C/c1ccco1)NCCCc1ccccc1 | -8.86
Cc1ccc(C(=O)NC2(C(=O)NC3CCCC3)CCCCC2)cc1 | -6.37
Cc1ccc(-n2nc(C)c3c(C(=O)N4CCC(C)CC4)cc(C)nc32)cc1 | 1.93
COc1ccc(NS(=O)(=O)c2ccc(NS(=O)(=O)c3cc(Cl)ccc3Cl)cc2)cc1 | 1.67
CCOc1ccc2nc(NC(=O)c3cc(=O)c4cc(Cl)ccc4o3)sc2c1 | 4.87
O=C(NC1CCS(=O)(=O)C1)C12CC3CC(CC(C3)C1)C2 (stereo not shown) | -1.15
Cc1nc2cccnc2n1-c1ccc(C(=O)NCCN2CCN(C)CC2)cc1 | -7.68
O=[N+]([O-])c1ccc(-n2c(O)nc3cccnc32)cc1 | -0.712
O=C(NC1CCN(Cc2ccccc2)CC1)c1ccc(Cl)cc1Cl | -6.12

Compound | % Inhibition @ 10 uM [%]
CSc1ccc(C2CC(c3c(O)cc(C)oc3=O)=Nc3ccccc3S2)cc1 (stereo not shown) | -3.26
Cc1nc2cc(NC(=O)NC(C)(C)CC(C)(C)C)ccc2n1C | 6.79
OC(c1ccc(F)cc1)(c1ccc(F)cc1)c1c[nH]cn1 | -5.29
O=C(Nc1ccccc1)N1CCN(c2ccc(F)cc2)CC1 | 4.7
O=C(Nc1ncc(Br)s1)C1CCCN(S(=O)(=O)c2c[nH]cn2)C1 (stereo not shown) | -2.25
N#CC1=C(N)Oc2cc(O)ccc2C1c1ccc(Br)s1 (stereo not shown) | 3.54
COc1cc(OC)c(OC)cc1CN1CCN(C(C)C)CC1 | 1.42
COCCCNC(=O)c1ccc(-c2nc(CS(=O)(=O)c3ccccc3)c(C)o2)cc1 | -0.416
CCOC(=O)C1=C(C)N(CCO)C(=O)NC1c1ccc(OCC)cc1 (stereo not shown) | 0.503
CC(C)c1ccc(C(C)C)c(S(N)(=O)=O)c1 | -1.42
COc1ccc(C/N=C2/C=C(O)CC(C)(C)C2)cc1 | 2.92
OCCNCc1cc(Br)ccc1OCc1ccccc1 | -3.04
O=C(COc1ccccc1)N(Cc1ccco1)Cc1ccco1 | -4.67
O=C1CC(NC2CCCC2)C(=O)N1c1ccc(N2C(=O)CC(NC3CCCC3)C2=O)cc1 (stereo not shown) | 1.35
CCc1c(C)sc(NC(=O)c2ccc(Br)cc2)c1C(N)=O | 10.9
COc1ccccc1CNC(=O)C(=O)NCC(c1cccnc1)N1CCOCC1 (stereo not shown) | 0.00665
Cc1cc(OCC(=O)NCc2ccc3c(c2)OCO3)ccc1Cl | 4.57
CCO/C(O)=C1/C(C)=Nc2nc3ccccc3n2C1c1ccc(O)cc1 (stereo not shown) | 6.45
Cc1ccc(C)c(CN2CCc3c([nH]c4ccccc34)C2)c1 | -1.93
Cc1ccccc1-c1nc2sc(C)c(C)c2c(=O)o1 | -3.28
O=S(=O)(c1ccc(-c2ccc(O)nn2)s1)N1CCN(Cc2ccc3c(c2)OCO3)CC1 | 0.224
Cc1ccccc1Cn1cnc2c(cnn2C(C)(C)C)c1=O | 1.63
CN(CC1COc2ccccc2O1)S(=O)(=O)c1csc(C(N)=O)c1 (stereo not shown) | -4.17
CCOC(=O)c1[nH]c(-c2ccc3c(c2)OCO3)nc1C | -2.88
